# Some of the results follow.
# Columns and labels:
# HSkMC = human skeletal muscle cells; assay: cytotoxicity call (relative viability < 0.9); conditions: 10 µM
# HepG2 = assay: cytotoxicity call (relative viability < 0.9); conditions: 10 µM
# S. aureus RN4220 = assay: growth inhibition call (relative growth <= 0.2); conditions: 50 µM
SMILES,cytotoxicity call (HSkMC),cytotoxicity call (HepG2),growth inhibition call (S. aureus RN4220)
Cc1noc(C)c1NC(=O)N(C)C[C@H]1OCCCC[C@@H](C)Oc2ccc(NC(=O)NC3CCCCC3)cc2C(=O)N([C@H](C)CO)C[C@@H]1C,inactive,active,inactive
CO[C@H]1CN(C)C(=O)c2cc(NS(=O)(=O)c3ccccc3C)ccc2OC[C@H](C)N(S(C)(=O)=O)C[C@H]1C,inactive,inactive,inactive
O=C(O)CCN1C(=O)NC2(CCCC2)C1=O,inactive,inactive,inactive
COc1ccc([C@@H]2CC=CC[C@H](C)Oc3ccccc3C(=O)N(C)[C@@H](Cc3ccccc3)C(=O)N2)c(OC)c1,active,inactive,inactive
COc1ccc(S(=O)(=O)Nc2cccc3c2O[C@H](CN(C)S(=O)(=O)c2c(C)noc2C)[C@@H](C)CN([C@@H](C)CO)C3=O)cc1,inactive,inactive,inactive
C[C@@H]1CN([C@@H](C)CO)C(=O)c2cc(NC(=O)NC3CCCCC3)ccc2O[C@@H]1CN(C)Cc1ccc(C(F)(F)F)cc1,inactive,inactive,inactive
COC[C@@H]1c2nnn(C)c2CCN1S(=O)(=O)c1cn(C)cn1,inactive,inactive,inactive
C[C@@H]1CN([C@@H](C)CO)C(=O)c2cc(NC(=O)Cc3ccccc3)ccc2O[C@@H](C)CCCCO[C@H]1CN(C)C(=O)CCC(F)(F)F,inactive,inactive,inactive
C[C@@H]1CCCCO[C@@H](CN(C)C(=O)c2ccncc2)[C@H](C)CN([C@@H](C)CO)C(=O)c2cc(NS(=O)(=O)c3cn(C)cn3)ccc2O1,inactive,inactive,inactive
